Test results as given in PubChem BioAssay AID1159614 (National Center for Advancing Translational Sciences (NCATS), 2016).
About 65 (0.1%) of roughly 45,000 compounds were called active. The call rests on the fitted dose curve; in most records, active means well fitted activation curve with a large enough effect; inconclusive means small, poorly fitted or top-dose-only effect; inactive means no such curve, though single readings can be large or run the other way. This is one part of the list.

Molecular target: Galactocerebrosidase (Homo sapiens) (UniProt P54803)
UniProt P54803, sequence (P54803 whole entry, looked up): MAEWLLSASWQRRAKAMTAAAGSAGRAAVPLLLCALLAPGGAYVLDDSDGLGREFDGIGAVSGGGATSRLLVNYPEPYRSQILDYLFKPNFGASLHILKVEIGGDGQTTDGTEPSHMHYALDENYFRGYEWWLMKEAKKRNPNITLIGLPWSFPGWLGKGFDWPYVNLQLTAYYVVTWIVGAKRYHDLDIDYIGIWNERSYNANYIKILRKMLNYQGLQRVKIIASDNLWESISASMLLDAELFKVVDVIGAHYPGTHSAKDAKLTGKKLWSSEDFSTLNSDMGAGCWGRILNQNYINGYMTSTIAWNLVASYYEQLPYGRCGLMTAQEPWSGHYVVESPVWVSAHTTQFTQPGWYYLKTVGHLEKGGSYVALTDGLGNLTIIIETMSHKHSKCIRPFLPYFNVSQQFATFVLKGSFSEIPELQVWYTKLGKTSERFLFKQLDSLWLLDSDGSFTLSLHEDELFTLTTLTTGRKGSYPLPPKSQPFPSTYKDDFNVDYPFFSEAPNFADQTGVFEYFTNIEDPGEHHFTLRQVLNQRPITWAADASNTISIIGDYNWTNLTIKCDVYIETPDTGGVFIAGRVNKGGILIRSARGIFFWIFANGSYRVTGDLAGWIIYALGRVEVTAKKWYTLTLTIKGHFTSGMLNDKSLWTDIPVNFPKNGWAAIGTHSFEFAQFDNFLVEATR
Assay: A Novel Cell-Based Assay to Identify Small Molecules for B -Galactocerebrosidase; further: 0% is about no effect; nearly all actives have a fitted effect of over 65% in size
Conditions: 145M-Twi-hGALC-G270D cells (Twitcher mouse brain line with human GALC G270D), HMU-beta-Gal fluorescence, 48 h; series mostly up to 57.5 µM; activation: at the top concentration
In short: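 Mutant human GALC (G270D), stably expressed in a Twitcher mouse brain cell line lacking endogenous GALC, is measured in live-treated cells via 6-hexadecanoylamino-4-methylumbelliferyl-β-galactoside hydrolysis (0.1 mM final, pH 5.2) with fluorescent detection.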

activation, inactive:
Cc1oc(-c2cccc(Br)c2)nc1Cn1c(SCc2cccc(F)c2)nc2cccnc21 -9.91%, O=C(CCC1N=C2c3ccccc3N=C(SCc3cccc(Cl)c3)N2C1=O)NCCc1ccccc1 (stereo not drawn) -12.3%, COc1ccc(NC(=O)CCS(=O)(=O)c2ccc3c(c2)n(C)c(=O)c(=O)n3C)cc1Cl -6.2%, CCCCC(O)/C=C(C)/C=C/C=C/C(=O)N1CCCC1=O (stereo not drawn) -8.56%, Cc1ccc(S(=O)(=O)NCCSc2nnnn2-c2ccccc2)cc1 -13.1%, COc1ccc2c(c1)NC(c1ccc(Cl)cc1)=NC(c1cccs1)=N2 -6.05%, CN1CCN(C2=Nc3cc(F)ccc3Cc3ccccc32)CC1 -1.42%, CCn1c(CN2CCCCC2)nc2cc(NC(=O)COc3ccc(C(C)(C)C)cc3)ccc21 -15.3%, CC1=C(C(=O)Nc2ccccc2)C(c2ccc(O)cc2)n2nc(-c3ccc(Cl)cc3)nc2N1 (stereo not drawn) -0.278%, Cc1ccc(C)c(Cn2c(=O)n(Cc3ccccc3)c(=O)c3sc4ccccc4c32)c1 -11.7%, CC(C)(C)c1ccc(-c2nnc(-c3ccccc3NC(=O)c3cccc(C(F)(F)F)c3)o2)cc1 -24.7%, CCCN1C(=O)C(Cc2nc3ccccc3c(=O)n2CC)c2cc(Br)ccc21 (stereo not drawn) -17.9%, CCOc1ccccc1CNC(=O)c1cnc2sc(N3CCCCCC3)nn2c1=O 2.64%, CCOc1ccccc1NC(=O)c1c(NC(=O)c2ccccc2)sc2c1CCCC2 -10.2%, CCc1ccc(Oc2c(C(F)(F)F)oc3c(CN4CCN(C)CC4)c(O)ccc3c2=O)cc1 -14.7%, O=C(Cn1cc(SCc2cccc(Cl)c2)c2ccccc21)N1CCCCCC1 -2.96%, COc1cccc(C(=O)NCc2nc(-c3ccccc3)no2)c1OC -5.86%, O=S(=O)(O)c1ccc(O)cc1 -8.51%, CCc1ccc(S(=O)(=O)NCCc2csc3nc(-c4ccccc4)nn23)s1 0.535%, CC(C)(C)c1ccc(-c2nc3cc(NC(=O)c4cccc(Br)c4)ccc3o2)cc1 -6.62%, COc1cccc(CNC(=O)Cn2ncc3c4ccccc4n(Cc4ccccc4)c3c2=O)c1 -9.9%, COc1ccccc1CN(Cc1ccco1)c1cnc(S(C)(=O)=O)nc1C(=O)Nc1cc(C)ccc1C -10.9%, O=C(NCCc1csc2nc(-c3ccc(F)cc3)nn12)c1cccc(C(F)(F)F)c1 -1.15%, COc1ccc(-n2ccn(CC(=O)NCCc3ccccc3)c(=O)c2=O)cc1OC -15.1%, Cc1oc(-c2ccccc2)nc1CCC(=O)c1ccc(CC2SC(=O)NC2=O)cc1 (stereo not drawn) -13.9%, COc1ccc(Cn2c(SCc3ccc(C(=O)NC4CCCC4)cc3)nc3cccnc32)cc1 -17.8%, Cc1cccc(NC(=O)CCc2c(C)nc3nc(CNC(=O)c4cccc(F)c4)nn3c2C)c1 -8.78%, COc1ccc(-c2noc(CSc3nnc(-c4ccncc4)n3-c3ccc(C)cc3)n2)cc1OC -1.91%, O=C(Cn1c(=O)n(Cc2ccc3c(c2)OCO3)c(=O)c2oc3ccccc3c21)Nc1ccc(F)cc1 -0.44%, CCn1cc(CNC(=O)c2cc(-c3ccc(C)c(C)c3)nc3ccccc23)c(C)n1 -2.11%, CC1CCCCN1C(=O)Cn1c(SCC(=O)N(C)c2ccccc2)nc2ccccc21 (stereo not drawn) -22.2%, Cc1cccc(C(c2sc3nc(-c4ccco4)nn3c2O)N2CCN(c3ccccc3)CC2)c1 (stereo not drawn) -10.6%, O=C(C1CCCCC1)N1CC(=O)N2CCc3ccccc3C2C1 (stereo not drawn) -12%, CCOc1ccccc1CNS(=O)(=O)c1ccc(-c2coc(C)n2)cc1 -40.8%, O=C(Cn1nc2c(cc1=O)CCCC2)Nc1ccccc1C(F)(F)F 4.26%, Cc1ccc(NC(=O)c2ccc(NC(=O)N3CCSc4nc(C)cc(C)c43)cc2)c(Cl)c1 -2.39%, COC(=O)c1ccccc1NC(=O)c1cc2nc(-c3ccc(OC)cc3)cc(C(F)(F)F)n2n1 -2.49%, Cc1ccc(NC(=O)c2ccc(=O)n(CC(=O)Nc3cccc(C)c3)n2)cc1 -9.76%, CCOC(=O)CNS(=O)(=O)c1cc(-c2nnc(Nc3cccc(O)c3)c3ccccc23)ccc1C -8.17%, Cc1cc(NC(=O)c2cccs2)cc(-c2nc3cc(Cl)ccc3o2)c1O -19.2%, CCCc1ccc(C2Sc3ccccc3NC3=C2C(=O)c2ccccc23)cc1 (stereo not drawn) -34.9%, Cc1ccc(C)c(NC(=O)c2ccc3nc(CCc4ccccc4)oc3c2)c1 -5.61%, O=C(CSc1n[nH]c(-c2ccccc2Cl)n1)N1CCN(c2ccccc2)CC1 0.746%, CCC(=O)NCc1cc(-c2nn(C)c(=O)c3ccccc23)ccc1OC -10.7%, CCCCn1c(SCC(=O)NCCCOC)nc2c(sc3ccccc32)c1=O -16.6%, CCn1c(=O)c2sccc2n2c(CCCC(=O)N3CCN(c4cc(Cl)ccc4C)CC3)nnc12 -3.72%, Cc1cc(C)c(NC(=O)CSc2ccc(-c3sc(-c4ccccc4)nc3C)nn2)c(C)c1 -4.56%, Cc1cc(C)c(NC(=O)CSc2nc3nc(C)cc(C)n3n2)c(C)c1 5.44%, CCN(CC)c1cc(C)c2cc(NC(=O)c3ccccc3OC)ccc2n1 -5.8%, CCCCOc1cccc(C2c3c(oc4ccccc4c3=O)C(=O)N2c2ccccn2)c1 (stereo not drawn) -8.7%, COc1ccccc1N1CCN(c2ncccc2-c2nc(-c3ccc(Cl)cc3)no2)CC1 -10.9%, CCc1ccc(C(=O)c2cn(CC(=O)Nc3ccc(OC)c(OC)c3)c3ccc(C)cc3c2=O)cc1 -5.75%, O=C(CSc1nc(-c2ccc(F)cc2)[nH]c1-c1ccccc1)NCC1CCCO1 (stereo not drawn) -14.7%, COc1ccc(-c2nnc(SCC(=O)NCc3ccc(C)cc3)nc2-c2ccc(OC)c(OC)c2)cc1OC -5.67%, COc1ccc(CCNC(=O)c2ccc3c(c2)N(Cc2ccccc2F)C(=O)c2ccccc2S3(=O)=O)cc1OC -1.9%, Cc1ccc(CN(Cc2ccco2)C(=O)COc2cc(C)c(Cl)c(C)c2)cc1 -4.31%, CCOC(=O)c1cnc2c(ccc3ccccc32)c1Nc1cccc(OC)c1 -17.5%, O=C(NCCc1ccccc1)c1cc(S(=O)(=O)N2CCCCC2)c[nH]1 -1.69%, O=c1c2c(-c3ccccc3)ccnc2[nH]n1-c1ccccc1 -12.3%, COCCN1C(=O)c2[nH]nc(-c3ccccc3O)c2C1c1ccc(Cl)c(Cl)c1 (stereo not drawn) -5.64%, O=C(CCN1N=C(c2ccccc2)CCC1=O)NCCc1ccc(Cl)cc1 -16.1%, Cc1nn(C(=O)c2c(F)cccc2F)c(C)c1S(=O)(=O)N1CCOCC1 -1.67%, CCCC1=Nc2cc(C(=O)NC(C)c3ccccc3)ccc2Sc2ccc(C)cc21 (stereo not drawn) -1.25%, Cc1cc(C(F)F)n2nc(C(=O)Nc3c(C)cccc3C)nc2n1 0.612%, Cc1cccc(N2CCN(C(=O)c3cc4c(=O)oc5ccccc5c4s3)CC2)c1C 6.22%, CCOc1ccc(N(CC(=O)NCc2ccccc2Cl)S(=O)(=O)c2c(C)[nH]c(=O)[nH]c2=O)cc1 -6.3%, CC(=O)Nc1ccc(NC(=O)CSc2nc3ccccc3nc2N2CCOCC2)cc1 -12.8%, Oc1c(C(c2ccccc2Cl)N2CCCC2)sc2nc(-c3ccco3)nn12 (stereo not drawn) -7.57%, CCOc1ccc(C(=O)c2cn(Cc3ccccc3OC)c3ccc(F)cc3c2=O)cc1 -10.1%, COc1ccc(S(=O)(=O)N2CCC(Oc3ccc(-n4cnnn4)cc3)CC2)cc1OC -12.5%, COc1ccc(-n2c(CC3C(=O)N(C)c4ccc(C)cc43)nc3ccccc3c2=O)cc1 (stereo not drawn) -10.3%, CCc1ccc(NC(=O)CN(c2ccc(OC)cc2)S(=O)(=O)c2c(C)[nH]c(=O)[nH]c2=O)cc1 -10.5%, Cc1ccccc1C(=O)Nc1nnc(S(=O)(=O)N2c3ccccc3CC2C)s1 (stereo not drawn) -9.69%, Cc1nn(-c2ccccc2)c2nc(C3CC3)cc(C(=O)Nc3ccccc3F)c12 -1.08%, Cc1ccc(CNC(=O)CSc2cc(C)[nH]c(=O)n2)cc1 -10%, COc1ccc(-c2noc(CNC(=O)c3ccco3)n2)cc1 -14%, O=C(NCc1ccco1)c1ccc2c(c1)N(Cc1cccc(Cl)c1)C(=O)c1ccccc1S2(=O)=O -14.7%, COc1ccc(CCNc2ncnc3c2cnn3-c2ccc(C)cc2)cc1 -4.36%, O=C(O)[C@H](O)c1ccccc1 -16%, Fc1ccc(CN2CCc3nc(Nc4ccccc4)ncc3C2)cc1F -1.88%, CN1C(=O)c2ccccc2Sc2ccc(NC(=O)COc3ccc(F)cc3)cc21 2.09%, COc1ccc(C(c2c(O)cc(C)n(Cc3ccco3)c2=O)N2CCCCC2)cc1OC (stereo not drawn) -7.78%, C(=C\c1ccccc1)/CN1CCN(C(c2ccccc2)c2ccccc2)CC1 -20.5%, CC1CCN(C(=O)CSc2nc(-c3ccccc3)no2)CC1 -5.04%, Cc1c(NS(=O)(=O)c2ccccc2)cc(C(C)C)c(O)c1S(=O)(=O)c1ccc(Cl)cc1 -13%, COc1cc(C(=O)N2CCC(c3nc4ccccc4o3)CC2)cc(OC)c1OC -14.8%, COc1cc(Cl)c(C)cc1NC(=O)c1ccc2c(Cl)c3c(nc2c1)CCC3 -12.6%, CCN(CC)CC(=O)Oc1ccc(NC(C)=O)cc1 -4.48%, CCOc1cccc(CC(=O)N2CCc3c([nH]c4ccccc34)C2c2ccc(Cl)cc2)c1OCC (stereo not drawn) -23.6%, CCOC(=O)c1cccc(NC(=O)c2ccc3c(Cl)c4c(nc3c2)CCC4)c1 8.02%, O=C(NCCCN1CCN(c2ccc(F)cc2)CC1)Nc1ccc(Cl)cc1 -24.2%, CCOC(=O)c1c(NC(=O)c2ccccc2Cl)sc2c1CCCC2 -13.3%, COCCNC(=O)c1c(C)oc2nc(C)nc(N3CCOCC3)c12 -9.45%, Cc1ccc2c(c1)NC(c1cccnc1)=NC(c1ccc(F)cc1)=N2 -14.7%, Cc1ccc(C)c(NC(=O)Cn2c(=O)n(Cc3ccco3)c(=O)c3oc4ccccc4c32)c1 -10.9%, Cc1ccc(-c2nnc(SCc3ccccc3C#N)o2)cc1 -4.81%, Cc1ccc(CN2C(=O)C(O)(c3c[nH]c4ccccc34)c3cc(Cl)ccc32)cc1 (stereo not drawn) -13.4%, COc1cccc(-c2nc(CS(=O)(=O)CC(=O)NCc3ccc(C)cc3)c(C)o2)c1 -21%
